# Assay results reported in publication PMC4336329 (PLoS ONE, 2015).
# Hit rate of the full screen: of about 310,000 compounds, about 2,200 (0.71%) showed an effect of 50% or more. The effect is printed as a negative number. This is one part of the list.
# Target: human ether-à-go-go-related gene (hERG) potassium channel (human, UniProt Q12809)
# Assay: primary screen, population patch clamp on CHO cells stably expressing hERG
# human ether-à-go-go-related gene (hERG) potassium channel, sequence (Q12809 whole entry, looked up): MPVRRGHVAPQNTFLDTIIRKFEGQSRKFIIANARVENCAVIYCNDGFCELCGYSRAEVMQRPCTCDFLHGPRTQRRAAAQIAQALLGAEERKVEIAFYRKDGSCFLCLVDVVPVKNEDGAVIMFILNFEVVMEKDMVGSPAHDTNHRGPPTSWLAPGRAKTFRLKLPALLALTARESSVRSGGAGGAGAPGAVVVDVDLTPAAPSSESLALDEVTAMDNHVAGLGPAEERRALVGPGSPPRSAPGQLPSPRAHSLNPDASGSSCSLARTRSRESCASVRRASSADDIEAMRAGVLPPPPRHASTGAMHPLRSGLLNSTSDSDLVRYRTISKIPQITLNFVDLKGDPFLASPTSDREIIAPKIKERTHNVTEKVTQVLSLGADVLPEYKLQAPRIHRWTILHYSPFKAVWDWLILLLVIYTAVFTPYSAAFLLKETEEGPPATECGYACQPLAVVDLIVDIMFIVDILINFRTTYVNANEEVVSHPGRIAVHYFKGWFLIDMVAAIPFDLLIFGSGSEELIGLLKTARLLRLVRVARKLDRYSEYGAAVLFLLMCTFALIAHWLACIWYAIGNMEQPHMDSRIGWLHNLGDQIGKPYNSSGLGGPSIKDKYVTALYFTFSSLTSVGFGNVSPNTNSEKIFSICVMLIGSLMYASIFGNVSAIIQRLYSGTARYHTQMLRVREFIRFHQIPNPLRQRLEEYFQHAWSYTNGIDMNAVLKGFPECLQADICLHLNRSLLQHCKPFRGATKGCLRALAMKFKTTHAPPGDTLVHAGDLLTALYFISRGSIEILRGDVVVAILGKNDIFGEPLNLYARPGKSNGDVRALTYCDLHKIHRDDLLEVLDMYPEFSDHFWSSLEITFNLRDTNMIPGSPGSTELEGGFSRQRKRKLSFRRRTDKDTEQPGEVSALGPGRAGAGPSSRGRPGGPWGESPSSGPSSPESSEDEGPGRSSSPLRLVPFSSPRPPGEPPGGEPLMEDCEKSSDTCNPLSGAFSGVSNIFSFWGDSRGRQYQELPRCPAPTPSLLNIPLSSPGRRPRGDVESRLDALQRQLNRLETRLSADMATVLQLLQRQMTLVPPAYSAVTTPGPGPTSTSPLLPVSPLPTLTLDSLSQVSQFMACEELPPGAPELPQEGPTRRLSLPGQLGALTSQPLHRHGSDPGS
row,Structure (SMILES),"hERG current change (%, negative = inhibition) at 1uM [%]"
1,CCN1/C(=C2\C(=O)N(C)C(=S)N2C)C=Cc2cc(OC)ccc21,6.61
2,COC(=O)c1ccccc1NCc1cc(=O)oc2cc(O)c(O)cc12,9.19
3,CCN(CC)c1ccc(C2Nc3cccc4cccc(c34)N2)cc1,15.6
4,Cc1ccc(-c2cc(=O)c3cc(F)ccc3[nH]2)cc1,6.15
5,O=C(/C=C/Nc1cccc([N+](=O)[O-])c1)c1ccco1,14.5
6,COc1ccc(C(=O)NC(=S)Nc2ccc(NC(=O)c3ccco3)cc2)cc1[N+](=O)[O-],11.3
7,O=C1NCCN(Cc2ccoc2)C1CC(=O)N(Cc1ccccc1)CC1CCC1 (stereo not shown),17.9
8,CN1CCN(C(=O)CCN2C(=O)/C(=C/c3ccc(F)cc3)SC2=S)CC1,8.5
9,O=C(c1nc2ccccn2c1CNCCOc1cccnc1)N1CCOCC1,10.6
10,COc1ccc(OCC(=O)Nc2cccc(S(=O)(=O)N(C)c3ccccc3)c2)c([N+](=O)[O-])c1,-1.67
11,COC(=O)[C@@]12CCCN1[C@H](c1ccc(-c3ccc(Cl)c(Cl)c3)cc1)[C@H]1C(=O)N(C)C(=O)[C@H]12.O=C(O)C(F)(F)F,4.46
12,Nc1nnc(-c2cccc(F)c2)s1,12.4
13,CN(C)CCCN1C(=O)c2cccc3c(Br)ccc(c23)C1=O,-9.66
14,O=C(CSc1nc2ncc(Cl)cc2[nH]1)N(Cc1ccccc1)C1CCS(=O)(=O)C1 (stereo not shown),7.76
15,O=C(c1ccccc1Oc1ccccc1)N1CCN(c2ccc(F)cc2)CC1,2
16,O=C(NCCCNC(=O)c1ccccn1)c1ccc(F)cc1,10.8
17,O=C(CSc1cn(CCNC(=O)c2ccccc2F)c2ccccc12)NCC1CCCO1 (stereo not shown),6.14
18,CCC(C)(C)NC(=O)Cc1ccccc1OC,19.1
19,COc1ccc2c(c1)CCc1cnc(N)nc1-2,-0.803
20,c1ccc(-c2nc3c4ccccc4ccn3c2CN2CCCCC2)cc1,-1.95
21,Cc1cc(C)cc(N(CCC#N)C(=O)COC(=O)c2nc3nc(C)cc(C)n3n2)c1,-0.842
22,C=CCC(=O)NC1CCCc2c1cnn2-c1cc(F)cc(F)c1 (stereo not shown),-43.3

row,Structure (SMILES),"hERG current change (%, negative = inhibition) at 1uM [%]"
1,CN(CCc1ccccn1)C(=O)CCC1CCCN(C(=O)c2ccc3c(c2)OCCO3)C1 (stereo not shown),3.84
2,Cc1c(C(=O)OC2CCCC2C)[nH]c2c1C(=O)CCC2 (stereo not shown),8.73
3,Cc1ccc(/C=C/C(=O)Nc2nn[nH]n2)o1,16.5
4,Oc1ccccc1N=Nc1nc(-c2ccccc2)c(-c2ccccc2)[nH]1,6.98
5,COc1ccc(C(=O)Nc2c3c(nn2C(C)(C)C)CS(=O)(=O)C3)cc1OC,9.82
6,O=C(NC1CCCC1)c1cccnc1N1CCCCCC1,5.12
7,N#CC/C(N)=N/Nc1nc2ccccc2nc1Cc1ccccc1,5.25
8,Cc1cc(C)c(C)c(S(=O)(=O)N2CCN(C(=O)c3cc(=O)[nH]c4ccccc34)CC2)c1C,-8.77
9,COc1ccc(-c2cc(C(=O)NCc3cccs3)no2)cc1,8.71
10,COc1cccc(C(c2c(C)[nH]n(-c3ccccc3)c2=O)c2c(C)[nH]n(-c3ccccc3)c2=O)c1O,5.86
11,COc1ccc(NS(=O)(=O)c2cn(C)cn2)cc1Cl,7.24
12,CC(=O)Nc1ccc(S(=O)(=O)NCC(=O)OCC(=O)N2CCCc3ccccc32)cc1,5.56
13,CCN(CC)C(=O)CSc1nnc(COc2cccc(C)c2)n1C,-3.56
14,Cc1ccc(C)c(NC(=O)CN(C)C(=O)C2CCN(C(=O)Nc3ccccc3)CC2)c1,8.59
15,CCOC(=O)c1nnc(-c2ccccc2)[nH]c1=O,10.9
16,CC1CCC/C(=C\Nc2ccc(C(=O)O)cc2)C1=O (stereo not shown),11
17,COCCOC(=O)c1c(C)oc2ccc(OS(C)(=O)=O)cc12,2.8
18,COc1cc(CN2CCN(Cc3ccc([N+](=O)[O-])cc3)CC2)c([N+](=O)[O-])cc1OC.O=C(O)C(=O)O,-25.4
19,CCOC(=O)N1CCN(c2ccc(S(=O)(=O)N3CCC(C)CC3)cc2[N+](=O)[O-])CC1,5.4
20,O=C(CCN1C(=O)/C(=C/c2ccc(F)cc2)SC1=S)NC1C=CS(=O)(=O)C1 (stereo not shown),8.75
21,CCN(CC)S(=O)(=O)c1ccc2[nH]cc(C(=O)NCCc3ccc(OC)c(OC)c3)c(=O)c2c1,4.71
